From PubChem BioAssay AID485281 (National Center for Advancing Translational Sciences (NCATS), 2010)
In all, about 350,000 compounds went through this assay and about 260 (0.074%) were called active. Inconclusive means that the source gave no clear call. Such entries were picked first, then a sample of the others. Calls follow the shape of the dose curve; as a rule, active = well fitted inhibition curve with a large enough effect; inconclusive = small, poorly fitted or top-dose-only effect; inactive = no such curve, though single readings can be large or run the other way. Where the call is inconclusive, the potency comes from a doubtful curve fit.

biological target: Ferritin light chain (Equus caballus) (UniProt P02791); experiment: qHTS Assay for Identification of Novel General Anesthetics; conditions: apoferritin/1-aminoanthracene competitive binding, fluorescence; activity change, negative = displacement: at 77.5 µM (top of the series); also: nearly all actives have a fitted effect of over 20% in size
UniProt P02791, sequence (P02791 whole entry, looked up): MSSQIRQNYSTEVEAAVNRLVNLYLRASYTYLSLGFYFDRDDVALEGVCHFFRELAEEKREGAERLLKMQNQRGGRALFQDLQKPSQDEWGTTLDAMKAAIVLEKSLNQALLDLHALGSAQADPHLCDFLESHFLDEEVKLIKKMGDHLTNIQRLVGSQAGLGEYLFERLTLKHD
Method in brief: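 10 uM apoferritin + 50% sat. 1-AMA, PBS; cpd 10 min RT; Ex380/Em535 endpoint; normalized to free probe vs complex; 4-param Hill fit; propofol titration as pos. ctrl.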
% is scaled to controls: 0 for no effect and ±100 for the full control effect; potency is read from the fitted curve at half-maximal effect; tags tell the direction and shape of the fitted curve.

SMILES | Potency | activity change, negative = displacement
COc1ccc([N+](=O)[O-])cc1N/C(=N/S(=O)(=O)c1ccccc1)c1ccccc1 | inconclusive: 15.8 µM [inhibitor, partial curve] | 
CC(=O)Nc1ccc(C(=O)Nc2ccc(S(=O)(=O)N3CCCC3)cc2)cc1 | inconclusive: 35.5 µM [inhibitor, single point] | 
COc1cc(SC#N)ccc1N=Cc1c(C)[nH]n(-c2cccc3ccccc23)c1=O | inconclusive: 44.7 µM [inhibitor, partial curve] | 
Cc1cc(C)nc(SCC(=O)N/N=C/c2cccc([N+](=O)[O-])c2)n1 | inconclusive: 35.5 µM [inhibitor, single point] | 
COc1cc(CN2CCN(CCc3ccccc3)C(CCO)C2)cc(OC)c1 (stereo not drawn) |  | inactive: -8.96%
Cc1cc(NCCN2CCOCC2)n2c(nc3ccccc32)c1C#N |  | inactive: 46%
O=C(COC(=O)c1ccccc1SCC(=O)N1CCCC1)Nc1ccccc1C(F)(F)F | inconclusive: 28.2 µM [inhibitor, partial curve] | 
O=S(=O)(c1ccccc1)c1nc(Nc2cccc(O)c2)sc1Cl | inconclusive: 35.5 µM [inhibitor, partial curve, poor fit] | 
CC(C)c1ccc(OCC(=O)Nc2c(Cl)ccc3nsnc23)cc1 | inconclusive: 35.5 µM [inhibitor, partial curve] | 
COC(=O)Cc1[nH]nc2c1C(c1cccc(OC)c1OC)C(C#N)=C(N)O2 (stereo not drawn) |  | inactive: -7.15%
N#CCCn1cc(CNC2CCC(O)CC2)c2ccccc21 (stereo not drawn) |  | inactive: 4.54%
COc1ccc(Cn2c(CNS(=O)(=O)c3ccc4c(c3)CCCC4)nc3cccnc32)cc1 | inconclusive: 3.55 µM [inhibitor, partial curve] | 
O=[N+]([O-])c1ccc(NCCNc2ccc(Cl)nn2)cc1 | inconclusive: 50.1 µM [inhibitor, single point] | 
C=CCn1c(SCC(=O)c2ccc(CNC(C)=O)o2)nc2scc(C3CC3)c2c1=O | inconclusive: 35.5 µM [inhibitor, partial curve] | 
O=C(Nc1nnc(-c2ccncc2)s1)C1CCCO1 (stereo not drawn) |  | inactive: -0.227%
CCN(CCn1cccn1)C(=O)c1cc(COc2ccc(F)cc2Cl)on1 | inconclusive: 35.5 µM [inhibitor, partial curve] | 
COc1nc(N)nc(NC23CC4CC(CC(C4)C2)C3)n1 | inconclusive: 15.8 µM [inhibitor, partial curve] | 
O=S(=O)(c1ccccc1Cl)N1CCCC(c2nc(-c3cccnc3)no2)C1 (stereo not drawn) | inconclusive: 14.1 µM [inhibitor, partial curve] | 
COc1ccc2nc(/N=C(\N)NC(=O)C(C)(C)C)nc(C)c2c1 | inconclusive: 31.6 µM [inhibitor, partial curve] | 
Cc1cccc(N2CCN(C(=O)COc3cc(=O)n(C)c4ccccc34)CC2)c1C | inconclusive: 17.8 µM [inhibitor, partial curve] | 
Cc1ccc(N2CC(NC(=O)c3ccc(S(=O)(=O)N4CCOCC4)cc3)CC2=O)cc1C (stereo not drawn) | inconclusive: 1.12 µM [inhibitor, full curve] | 
COc1ccc(CNC(=O)c2c(C)oc3c2C(=O)c2ccccc2C3=O)cc1 |  | inactive: -16.1%
Cc1cc2oc(=O)c(CC(=O)O)c(C)c2c2occ(-c3ccc(F)cc3)c12 |  | inactive: 3.81%

SMILES | Potency | activity change, negative = displacement
COC(=O)c1ccc(C2C(C(=O)c3cc4ccccc4o3)=C(O)C(=O)N2CCCN(C)C)cc1 (stereo not drawn) | inconclusive: 28.2 µM [inhibitor, partial curve] | 
COc1ccc(Cl)cc1NC(=O)CN(C)C(=O)CNC(=O)C12CC3CC(CC(C3)C1)C2 | inconclusive: 35.5 µM [inhibitor, partial curve] | 
CS(=O)(=O)n1nc(OC(=O)c2cc(Br)ccc2Cl)cc1N |  | inactive: -3.32%
COc1ccc(/C=C/C(=O)c2ccccc2)cc1Cn1nnc2ccccc21 |  | inactive: -7.94%
Cc1cccc(C(=O)N2CCN(c3ccc([N+](=O)[O-])c(N4CCOCC4)c3)CC2)c1 | inconclusive: 22.4 µM [inhibitor, partial curve] | 
O=[N+]([O-])c1cccnc1NCCc1ccccc1 | inconclusive: 14.1 µM [inhibitor, partial curve] | 
COc1ccc(CNC(=O)C(=O)NCC2OCCN2S(=O)(=O)c2cccs2)cc1 (stereo not drawn) | inconclusive: 50.1 µM [inhibitor, single point] | 
CC(=O)c1cccc(NC(=O)N2CCCC2C(=O)Nc2ccc3c(c2)OCCO3)c1 (stereo not drawn) | inconclusive: 28.2 µM [inhibitor, partial curve] | 
COCCc1nn2c(=O)cc(COC(=O)COc3ccc(F)cc3)nc2s1 | inconclusive: 50.1 µM [inhibitor, single point] | 
CCOC(=O)c1c(C)n(CC(O)c2ccccc2)c2ccc(O)cc12 (stereo not drawn) | inconclusive: 39.8 µM [inhibitor, single point] | 
O=C(COc1ccccc1)NC1CCCCC1 |  | inactive: -0.13%
Cc1sc(NC(=O)c2cccs2)c(C(N)=O)c1C | inconclusive: 56.2 µM [inhibitor, single point] | 
COc1cc2ccccc2c2c1CCCC2=O | inconclusive: 14.1 µM [inhibitor, partial curve] | 
O=c1[nH]c2ccc(NCc3ccccc3OCc3ccc(Cl)cc3)cc2[nH]1 | inconclusive: 28.2 µM [inhibitor, single point] | 
CC(C)COc1ccc(S(=O)(=O)n2cc(F)c(=O)[nH]c2=O)cc1 | inconclusive: 28.2 µM [inhibitor, partial curve] | 
Cc1ccc(-n2ncc3c(N4CCC(C(N)=O)CC4)ncnc32)c(C)c1 | inconclusive: 35.5 µM [inhibitor, partial curve] | 
Cc1cccc(NC(=O)CC2SC(=NC3CCCCC3)NC2=O)c1 (stereo not drawn) | inconclusive: 39.8 µM [inhibitor, single point] | 
CN(NS(=O)(=O)c1ccc(F)cc1)c1ncc(C(F)(F)F)cc1Cl | inconclusive: 39.8 µM [inhibitor, partial curve] | 
Cc1ccsc1CNc1ncnc2ccc(-c3c(C)noc3C)cc12 | inconclusive: 14.1 µM [inhibitor, partial curve] | 
C[N+]1(CCCCC[N+]2(C)CCCC2)CCCC1 |  | inactive: 4.86% [at 29.3 µM]
CCc1ccc(NC(=O)C2CCN(C(=O)N3CCOc4ccccc43)CC2)cc1 | inconclusive: 25.1 µM [inhibitor, single point] | 
O=C(Nc1cnn(C23CC4CC(CC(C4)C2)C3)c1)c1cnn2cccnc12 | inconclusive: 3.55 µM [inhibitor, full curve] | 
COc1ccc(/C=C2\SC(=S)N(C(Cc3ccccc3)C(=O)O)C2=O)cc1 (stereo not drawn) | inconclusive: 39.8 µM [inhibitor, single point] | 

SMILES | Potency | activity change, negative = displacement
Clc1ccc(-n2nnc(-c3cccnc3Cl)n2)cc1Cl |  | inactive: -11.2%
CCOc1ccc(N=C2NC(=O)S/C2=C\c2ccc(O)cc2)cc1 | inconclusive: 14.1 µM [inhibitor, partial curve] | 
COc1ccc(C(=O)NCc2nnc(SCC(=O)N3CCCc4ccccc43)o2)cc1OC | inconclusive: 20 µM [inhibitor, partial curve] | 
CN(c1ccc([N+](=O)[O-])cc1C(=O)Nc1ccccc1)C1CCCCC1 | inconclusive: 10 µM [inhibitor, partial curve] | 
CN(Cc1ccccc1)S(=O)(=O)c1ccc(NC(=S)NC(=O)C2CCCCC2)cc1 |  | inactive: -3.99%
CCOC(=O)c1ccc(N2C(=O)c3n[nH]c(C)c3C2c2ccc(C(C)(C)C)cc2)cc1 (stereo not drawn) |  | inactive: -3.24%
N#CCC1c2ccccc2CCN1C(=O)Nc1ccc(C(F)(F)F)cc1 (stereo not drawn) |  | inactive: 0.553%
Cc1nnc(SCC(=O)N/N=C/c2ccc(-c3ccc(C)c(Cl)c3)o2)s1 | inconclusive: 39.8 µM [inhibitor, single point] | 
COC(=O)[C@H](CC(C)C)NC(=O)Nc1ccc2c(c1)OCCO2 | inconclusive: 25.1 µM [inhibitor, single point] | 
C=CC[n+]1ccc2ccccc2c1C |  | inactive: -7.9%
Clc1ccc(NCc2cccnc2)cc1 | inconclusive: 44.7 µM [inhibitor, partial curve] | 
Cc1cccc(OC(=O)c2cc(-c3ccc4c(c3)OCCO4)on2)c1 | inconclusive: 20 µM [inhibitor, partial curve] | 
N#CC(C#N)=C1C=CC=CN1/C(=C\c1ccco1)C(=O)c1ccccc1 |  | inactive: -21.4%
COC(=O)c1sc(=S)n(Cc2ccccc2)c1C |  | inactive: -2.58%
CC(C(=O)Nc1ccc(S(N)(=O)=O)cc1)N1CCc2ccccc21 (stereo not drawn) | inconclusive: 15.8 µM [inhibitor, partial curve] | 
CCOc1cc(N2CCOCC2)c(OCC)cc1NC(=O)c1c(-c2ccccc2Cl)noc1C | inconclusive: 28.2 µM [inhibitor, single point] | 
O=C(NCc1ccncc1)C(=O)Nc1nc(C23CC4CC(CC(C4)C2)C3)cs1 | inconclusive: 50.1 µM [inhibitor, single point] | 
CCN(CC)S(=O)(=O)c1ccc(C(=O)Nc2nc3c(Cl)cc(Cl)cc3s2)cc1 | inconclusive: 0.794 µM [inhibitor, full curve, poor fit] | 
O=C(Cn1cc(C(=O)c2ccco2)c2ccccc21)NC1CCCCC1 | inconclusive: 35.5 µM [inhibitor, single point] | 
CCOc1ccc(NCc2ccccc2OCc2cccc(F)c2)cc1 | inconclusive: 31.6 µM [inhibitor, single point] | 
O=C(c1c[nH]c2ccccc12)C(Cl)c1ccccc1 (stereo not drawn) | inconclusive: 31.6 µM [inhibitor, single point] | 
COc1ccc(NC(=O)Cn2cnc3sc(C)c(S(=O)(=O)N4CCN(C)CC4)c3c2=O)cc1Cl | inconclusive: 4.47 µM [inhibitor, single point] | 
